# Measured values: the supplement of paper PMC11417369
# This is one part of the list.
# Tested on: PfSIP2 AP2 domain 1 (GST-tagged)
# Experiment: gcPBM binding intensity (ln(normalized median fluorescence intensity)); higher = stronger DNA binding
# Outline: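 Alexa488 anti-GST antibody, scanned at 488 nm, detected GST-tagged P. falciparum DNA-binding domains that had been expressed in E. coli and incubated for 1 h on an Agilent 4 × 180k array. The array carried primer-extended double-stranded 36-bp intergenic genomic probes and negative controls. Binding intensity is the highest Masliner-normalised natural-log median intensity across replicate spots of either orientation of each probe.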
row,Sequence,gcPBM binding intensity (ln)
1,TTATTGCATATTTACACACGTACTAATTTAAACAAG [CACACA_site971],7.28
2,AGAATATTTAAAAAAGGTACACAAAAACCAAAATAA [XGTACX_site8569],7.32
3,TATTAATACAGACACACACACACACCCAATAAAATA [CACACA_site243],7.27
4,ATAAATTCATATATGAGTACTAAAAATATCTTTTTC [XGTACX_site5541],6.87
5,AAAAAAAACGAACACACACACATTCAATATAAAACA [CACACA_site6170],6.9
6,CAATGGTCATTTAGTTGTACTTAATTTTAAATCAAA [XGTACX_site4075],7.06
7,TTTTTTGTTATTAAAAGTACATTATATGCTAGTTAA [XGTACX_site8747],6.94
8,TTAAAAATATTATGTACACACATTTGAGATATTTGT [CACACA_site6953],6.95
9,TGAAATAAAATTTATACACACTTGCTAAATGATCAT [CACACA_site4265],6.72
10,TATCATTAATTTACATGTACATAAATGAATGTTTAT [XGTACX_site5608],7
11,TTCGTAATTTATATCACACACATATATCTATAATAA [CACACA_site7458],7.47
12,AAAGGCTATCTTATATACTCCTAAAACGCGAACGTA [CACACA_negctrl_site396],6.71
13,AATATATAAATATTGTGTACTTATTTTTTTATATGT [XGTACX_site4377],7.16
14,ATAAATTCTATGTATACACACATATAAAATATAGAT [CACACA_site7296],6.96
15,ATTATATACATATATGCACACAAAAAAATATATATT [CACACA_site8508],7.28
16,GACTATTTTAATATTTTACACACCATGTAAAATATA [CACACA_site9050],7.11
17,ACATAATAAAAAAAACGTACAAATAGGTTTTTCATA [XGTACX_site6645],6.93
18,TTTTTTTATTATTAAAGTACTAAAAAATGAAAACTG [XGTACX_site6758],7.49
19,TATAATAAAAAATGTACACACATAAGAAAATTTAAT [CACACA_site2901],7.16

row,Sequence,gcPBM binding intensity (ln)
1,TGGGAATAAAAACACACACACACACCGATATATATA [CACACA_site5875],7.75
2,ATATATTAAAACCTAGTGCATTTGTACATATTTCAA,8.05
3,AGGTTAAAACATATATATATATATATATATATATAT [XGTACX_negctrl_site333],9.11
4,TTATACAGGACAATAGTGCACATAAATATATGTATA,10.6
5,TATATATATATATACACACACACCGTCCGTGTTAAA [CACACA_site2979],9.53
6,AAGTAATTTATGCATACACACATATATAAATATGTA [CACACA_site7813],7.11
7,ATATATATAAAACACACACACACATGTTTTAAAACT [CACACA_site78],7.63
8,AAAAACTATTGTAGGACACACAAAATTCCAATTTTA [CACACA_site1701],6.93
9,AAATAAATGTTATGCATACACACTTTATACCTATTT [CACACA_site3779],7.36
10,AATGAATGAATTATTTTGCGCTTATTATAGGACGAA [XGTACX_negctrl_site218],7.3
11,ATATATATTAGGTATTGTACTTATATGCATATAAGT [XGTACX_site2700],7.26
12,TCTTTTATGTTTGTTTTTCCCTTTTTTTATGTTCCC [CACACA_negctrl_site1722],6.95
13,TATATATATATTTATACACACATTAGTGTATACATG [CACACA_site2950],8.89
14,CACAAAAAGAAACACACACACATATATATTTATTAT [CACACA_site3646],6.87
15,TTAGATATAAAAGCATGTACTTGTATAAAATATATA [XGTACX_site8272],7.03
16,TTCCCTATATAGAGCATGCACTATATTCAAATGATG,8.21
17,TTATCAAATGAGTGTTGTACGTCTTTTGAAATACCA [XGTACX_site8804],7.23
18,GAAAAATTGAATTTGGGTACATATAAATATTATATT [XGTACX_site2363],6.85
19,ATAAATATTAGCAGTTGTACAATAAATATATGTAAT [XGTACX_site2534],7.06

row,Sequence,gcPBM binding intensity (ln)
1,AAAATGTTTTTATCCAGTACATAAATATATATATAT [XGTACX_site7398],8.83
2,TATGAACACCCAAATACACACACTCAAAAAAAAAAA [CACACA_site5466],6.98
3,TCAGATCCATAGAAGGTGCAAATAACAAAAATACAA [GTGCAC_site9610],10.9
4,TAATTTTTCTTATATAGTACACAAAAAGAAAATTAC [XGTACX_site6393],7.07
5,ATATATATATATATATGTACATATATTTGTAATGTC [XGTACX_site8074],9.37
6,TTTATTATGTAAGCATGTACATGATGTATATATTTA [XGTACX_site5021],7.07
7,ATCTGTACAGTTTTTGCACACATATAAATAAAAAAA [CACACA_site9198],7.85
8,TATTTACAAATAAAAAGTACATAAACTAATATCTTT [XGTACX_site2181],7.27
9,TTGTTTGTAAACAGATGTACATATAAAAATATATAT [XGTACX_site3370],7.31
10,TATATTAGAAAGGATACACACATATATAAATATCTA [CACACA_site6411],6.74
11,TAAATACTTATATGTACACACATATAGATATATATT [CACACA_site2553],7.01
12,ATATAAATAAATGTATGTACATATATTTATATGCAT [XGTACX_site4185],7.1
13,CACAGACACGGACACACACACACACCGATATATATA [CACACA_site4353],7.79
14,ATTTTTTAAAATATTTGTACATATATAATGCATATA [XGTACX_site7026],7.14
15,ATATAATCTGAGTGCACACAAATAAATAAACATACA [CACACA_site422],10.4
16,TAAAAGGATGCATATACACACATATAGATTTATATA [CACACA_site7336],6.98
17,TTTTTTTTGTATTTTTCACACACACCGAAGTAAACA [CACACA_site8575],7.39
18,AGTTGCATACATTGAAGTACAGAACATTTATATATA [XGTACX_site240],7.02
19,TTTTTCCTTATTAATACACACATTCACCTTTTAAAT [CACACA_site479],7.29
